# Test results from publication PMC4336329 (PLoS ONE, 2015).
# About 14,000 (4.5%) of roughly 310,000 compounds showed an effect of 50% or more. The effect is printed as a negative number. The list shows a part of the results.
# Biological target: human ether-à-go-go-related gene (hERG) potassium channel (human, UniProt Q12809)
# Test: primary screen, population patch clamp on CHO cells stably expressing hERG
# 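Note: peak tail current of the secondary pulse compared with the same well before compound.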
# Sequence of human ether-à-go-go-related gene (hERG) potassium channel (Q12809 whole entry, looked up): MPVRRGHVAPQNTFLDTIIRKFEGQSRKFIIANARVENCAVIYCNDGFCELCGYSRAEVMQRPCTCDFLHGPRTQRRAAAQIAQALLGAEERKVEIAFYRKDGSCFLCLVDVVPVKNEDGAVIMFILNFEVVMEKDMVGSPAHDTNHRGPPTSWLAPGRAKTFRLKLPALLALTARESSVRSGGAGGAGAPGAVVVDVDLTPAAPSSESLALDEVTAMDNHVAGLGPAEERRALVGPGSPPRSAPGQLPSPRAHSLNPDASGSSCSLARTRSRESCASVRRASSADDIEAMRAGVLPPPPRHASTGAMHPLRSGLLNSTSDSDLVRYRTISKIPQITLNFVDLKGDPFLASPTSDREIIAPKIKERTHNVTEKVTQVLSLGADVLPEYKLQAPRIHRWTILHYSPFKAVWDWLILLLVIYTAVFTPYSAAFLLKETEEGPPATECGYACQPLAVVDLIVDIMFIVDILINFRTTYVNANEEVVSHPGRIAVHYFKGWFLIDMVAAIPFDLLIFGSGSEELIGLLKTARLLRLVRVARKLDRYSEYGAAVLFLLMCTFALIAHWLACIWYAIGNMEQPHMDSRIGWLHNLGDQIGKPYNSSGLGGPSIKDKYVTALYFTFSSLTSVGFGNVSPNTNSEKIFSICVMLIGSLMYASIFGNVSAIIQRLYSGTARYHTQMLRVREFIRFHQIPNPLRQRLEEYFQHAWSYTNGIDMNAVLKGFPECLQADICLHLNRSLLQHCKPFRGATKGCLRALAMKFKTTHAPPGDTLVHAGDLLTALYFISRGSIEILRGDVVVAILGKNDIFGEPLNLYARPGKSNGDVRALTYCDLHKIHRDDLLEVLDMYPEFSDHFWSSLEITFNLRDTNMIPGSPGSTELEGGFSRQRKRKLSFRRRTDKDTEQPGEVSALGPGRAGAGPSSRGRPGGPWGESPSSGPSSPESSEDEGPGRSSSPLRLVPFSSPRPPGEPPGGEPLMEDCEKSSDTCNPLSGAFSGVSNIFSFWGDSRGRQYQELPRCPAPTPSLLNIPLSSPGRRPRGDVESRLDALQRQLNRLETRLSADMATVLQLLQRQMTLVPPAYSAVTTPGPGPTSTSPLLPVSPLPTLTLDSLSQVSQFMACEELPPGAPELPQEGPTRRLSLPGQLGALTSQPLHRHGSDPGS
row,SMILES,"hERG current change (%, negative = inhibition) at 10uM"
1,Cl.OC12CC3C[C@H](C1)C(N1CCOCC1)[C@@H](C3)C2 (some centres unmarked),16.9%
2,COCCN1CSC(=S)N(Cc2ccco2)C1,16.2%
3,CCc1ccc(C(=O)NNC(=O)c2c(CC)noc2C)cc1,0.904%
4,O=C(NN=C(Cc1ccccc1)Cc1ccccc1)c1ccc(F)cc1,-26.4%
5,O=c1sc2ccccc2n1COc1ccc(Cl)cc1,7.8%
6,O=S1(=O)CCN(Cc2cccc(C(F)(F)F)c2)CC1,46.2%
7,COc1ccc(-n2cc(C(=O)c3ccccc3O)cn2)cc1,9.18%
8,CCc1ccc(CN2CCC(n3nccc3NC(=O)C3CCCC3)CC2)cc1,-76.3%
9,CCOCCn1c(=O)c2c(nc3n2CCN3c2ccc(C)cc2)n(C)c1=O,-2.21%
10,CCOC(=O)C1CCCN(C(=O)c2cncc(Br)c2)C1 (centres unmarked),-4.29%
11,CC1(C)CC(=O)C=C(NCCN2CCN(C(=O)Cc3ccc(Cl)cc3)CC2)C1,-6.62%
12,O=Cc1ccccc1-c1cn(CCCOCc2ccccc2)nn1,-6.1%
13,COc1ccc(C(=O)NNC(=O)C2CCCO2)cc1 (centres unmarked),27.1%
14,CC1CN(CC(=O)NCc2ccccc2)CC(C)O1 (centres unmarked),25.2%
15,COC(=O)c1sc(N)c(C(=O)OC)c1Cn1ncc(Cl)c(Cl)c1=O,-2.38%
16,O=C(c1ccco1)N1CCN(C(=O)C2CCCO2)CC1 (centres unmarked),11.7%
17,COc1ccc(NC(=O)CNC(=O)Cc2ccccc2)cc1,22.2%
18,O=C(Nc1ccccc1Br)c1c(F)cccc1Cl,-3.35%
19,CCOC(=O)N1CCN(C(=O)/C(=C\c2ccc(SC)cc2)NC(=O)c2ccccc2)CC1,-78.5%
20,Cc1cccc(NC(=O)CSc2nnc(CNC(=O)c3ccco3)o2)c1,8.53%
21,Cc1cccc2cc(CN(CC3CCCO3)C(=S)Nc3ccccc3)c(=O)[nH]c12 (centres unmarked),2.39%
22,Nn1c(Cc2cccc3ccccc23)nnc1SCCOc1ccc(Br)cc1,-3.65%

row,SMILES,"hERG current change (%, negative = inhibition) at 10uM"
1,Cc1cc(C(=O)O)ccc1-c1ccc(/C=C2\NC(=O)N(Cc3ccccc3Cl)C2=O)o1,19%
2,COc1ccc(NS(=O)(=O)c2ccc(N3CCOCC3)c(NC(=O)c3ccccc3Br)c2)cc1,-11.2%
3,CN(C)c1ncc(S(=O)(=O)c2ccc(Cl)cc2)c(-c2ccccc2)n1,-6.65%
4,Cc1cccc(C(=O)NC2CCN(CC(=O)Nc3ccccc3Cl)CC2)c1,-49%
5,Clc1ccc(CSc2nnc(/C=C/c3ccccc3)o2)c(Cl)c1,14.4%
6,Cc1cc(C(=O)COC(=O)/C=C/c2ccc(F)cc2)c(C)n1C,4.57%
7,Cc1cccc(N2CCN(c3ccc(NC(=O)/C=C\C(=O)O)cc3)CC2)c1,27.5%
8,CC(Sc1nncn1C)C(=O)Nc1ccc(N2CCCCC2)cc1 (centres unmarked),26.9%
9,CN1CCCN(Cc2nc(-c3cccc(C(F)(F)F)c3)no2)CC1,-60.2%
10,Cc1c(NC(=O)C(C)OC(=O)c2ccc(NC(=O)CC#N)cc2)c(=O)n(-c2ccccc2)n1C (centres unmarked),1.74%
11,COC(=O)c1cc(Cl)c(NC(=O)/C=C/c2ccc(Cl)cc2)cc1OC,-15.7%
12,COc1ccc2c(c1)sc(=N)n2CC(=O)Nc1cc(C)cc(C)c1,-6.95%
13,O=C(Nc1ccc(F)cc1)Nc1cccnc1,-19.9%
14,COc1ccccc1NC(=O)Nc1nn(C)c2cccc(OC)c12,2.03%
15,CC(O)(CS(=O)(=O)c1ccc(Br)cc1)c1ccccc1 (centres unmarked),20.8%
16,NS(=O)(=O)c1ccc(CNC(=S)NC2CC2)cc1,2.67%
17,O=C(NNC(=O)C1CCCO1)c1ccc(Br)cc1 (centres unmarked),5.24%
18,Cc1cccc(N2CCN(C(=O)NC3CCCCC3)CC2)c1C,1.11%
19,O=C(CCNC(=O)c1ccccc1Cl)Nc1nc(-c2ccccc2Cl)cs1,-7.92%
20,Cc1ccc(-c2cnc3n2CCCCC3)cc1,-29.7%
21,CC(=O)Nc1ccc(NC(=O)C(C)OC(=O)C(C)SCC(=O)Nc2ccc(C)cc2)cc1 (centres unmarked),8.63%
22,C/C(=N\NC(=O)C1(C)CC1(Br)Br)c1cccc(NC(=O)c2ccc(C)o2)c1 (centres unmarked),-12.9%
